Some of the results follow.
T1: UNK ZnF1-3 (human, UniProt Q9C0B0 31-174)
T1 sequence: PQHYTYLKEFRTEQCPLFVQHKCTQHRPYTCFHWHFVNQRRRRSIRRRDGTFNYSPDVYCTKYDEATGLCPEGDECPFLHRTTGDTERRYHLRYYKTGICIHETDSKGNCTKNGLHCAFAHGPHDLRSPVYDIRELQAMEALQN

B1: chr7:141438946:141438947:+_ENSG00000106028_ENST00000265304|hu_mus|hu_hu_hu_mus_True|18_98 (ssRNA)
RNA: GGGAGUUCUACAGUCCGACGAUCGACGAAAUACCUGACAGGUCUUCCUUCGAAACAUGGCUUCUGUUUUUCUUACAACCUAAUCUUUAGGCUUUUCCUAAAGGAAAGAAAGAAAAGGCCCAGCCACUAAAUCAAGAAACUACACAACAGAGGAUUGAGCAUCA
B2: 48685348_48686994_574_CDS_ENSG00000162869_ENST00000294952|human|control|control (ssRNA)
RNA: GGGAGUUCUACAGUCCGACGAUCGUCAACCACAGCUUGGUGCUGGGCUGCUUCUGUCUCCAGAGUGGCCAGUCGACUCCUCAGCUCUGCUUCCACAUGCUUGUGCUGCUCAUCAGCUUCAAAAAAUUGUAUAUGCAACCGUUCCAACAGAGGAUUGAGCAUCA
B3: 65811580_65813991_1083_CDS_ENSMUSG00000029201_ENSMUST00000031103|mouse|control|control (ssRNA)
RNA: GGGAGUUCUACAGUCCGACGAUCACCAACGCUGGCCUUUAGAAACUUAUUCCCAAUUCUUUGGUCCAUCCCGAUGGCCGUUGCCACCUCUUCCACAUCGGCGCCUGUUGCUUCACACAGAGCGCUGAUGGAGUUGAUGCUGCUCAACAGAGGAUUGAGCAUCA
B4: chr13:77182921:77182922:-_ENSMUSG00000021597_ENSMUST00000151524|mus_hu|FALSE|FALSE (ssRNA)
RNA: GGGAGUUCUACAGUCCGACGAUCAGUGUGUACCCCAGGACACACUUUCAAAUUCUCAGGCAGUUCCUUAAGAAUGUGUGGGAGUUUCUGCAAUGUCUUUAUAUUUCCAGCAUAAAGAUCCAGUAACCAGUCAGUAUGAACACUCAACAGAGGAUUGAGCAUCA
B5: chr5:60455605:60455606:-_ENSG00000188725_ENST00000339020|hu_mus|motif|central (ssRNA)
RNA: GGGAGUUCUACAGUCCGACGAUCAACUUAAAUACUUGCCAGUAGAUACCAACAAACUUUUAUUUCCAAGCCUAAAAGUUACGGUAGUAUUGAGGUCAGAACAUGACUCUUCUGUACGGUCAGAUUAAUUCACUAAAUAAUACUCAACAGAGGAUUGAGCAUCA
B6: 39875923_39878623_2742_CDS_ENSG00000121892_ENST00000303538|human|control|control (ssRNA)
RNA: GGGAGUUCUACAGUCCGACGAUCAAGCUGGACUUCUUUAUUUGUGAAUAUGGCGUGUAUACAGUGCACAGCCUGUUUUGCUUGGUGUGGAGUACCCCUCUUUGCUUUUUGAUGUAAAAUGGGAAUUAAGGUCGAUCGUAUCUGCAACAGAGGAUUGAGCAUCA
B7: chr1:66463027:66463028:+_ENSMUSG00000015222_ENSMUST00000114013|mus_mus|mus_mus_mus_hu_True|48_48 (ssRNA)
RNA: GGGAGUUCUACAGUCCGACGAUCUUUUCUUUCAGGAGUGGAAAUUCUGCCUCUCCCGGUUUUAAAAGGCUUUUCUUUUCUAUGUUUCUCGAGAGACGAUCUCCGAGCUUCCUUUUCAGCUUUCUCCUCUUUAGGAAUAGUUUCCAACAGAGGAUUGAGCAUCA
B8: chr19:29217640:29217641:+_ENSMUSG00000024785_ENSMUST00000064393|mus_mus|FALSE|FALSE (ssRNA)
RNA: GGGAGUUCUACAGUCCGACGAUCCUUGGUUUCAACUUUAAACAUAACCUGGAAAAAGCUCUUCAGAUGCCGCAAAAAUUCUAUCGUGUAGGGUGAGAGUGGUCCCAGCAGGACUUUGGAAACGUCCUGCUGUCCAAGGGUCAUCAACAGAGGAUUGAGCAUCA
B9: 74176515_74177363_2164_3pUTR_ENSMUSG00000034799_ENSMUST00000030170|mouse|control|control (ssRNA)
RNA: GGGAGUUCUACAGUCCGACGAUCGAUCCUGUCUUGUCCUUGGCCUGCAAGCCCUGGGCACAGACCACUGUGAUGCUAAUUUUGGCAGACCACUUGGAUGUGCCGUCCAGCACACUCUGCUUGACAGCUUUCAUCUGCUGUGUGCAACAGAGGAUUGAGCAUCA
B10: chr15:83807826:83807827:-_ENSG00000166503_ENST00000299633|hu_hu|motif|central (ssRNA)
RNA: GGGAGUUCUACAGUCCGACGAUCGGGCAACUUCAUGCAACCAAAUAACAUGAAAUUAAAUCAGUAACUUUUAAAAAAGGCGGAAAUGUCUUUUCCCCCCGAAACACAACAGAGAGGAAUAUGAAUAAUGUACAUACAAACUGGCAACAGAGGAUUGAGCAUCA
B11: chr2:69570450:69570451:+_ENSMUSG00000042133_ENSMUST00000090858|mus_mus|FALSE|FALSE (ssRNA)
RNA: GGGAGUUCUACAGUCCGACGAUCGCAAAGGCAGCGAAAGUUCUCACACGUUUUGGGACAUACAUCGGAAAAUAAUUCAAAGACAACUCUUCCAGCAGGUUGAUUAUUAAUGGCAAUGUCAAAAAAACACCGAGGACGCUGGACCAACAGAGGAUUGAGCAUCA
B12: chr7:35674789:35674790:-_ENSG00000122557_ENST00000396081|hu_mus|FALSE|FALSE (ssRNA)
RNA: GGGAGUUCUACAGUCCGACGAUCUCCAGCUUGGUGUAAAUAAACCAGCAGCAUGGCUCCCAUUACCAUGAUAAACCGACUGAAAGAAGAAUAGAAGUAUACGAUGCUGAGGAGGACGGCAGCUCGGGAGAACGUGUACACCCACAACAGAGGAUUGAGCAUCA
B13: chr16:75203323:75203324:+_ENSG00000184517_ENST00000393430|hu_mus|FALSE|FALSE (ssRNA)
RNA: GGGAGUUCUACAGUCCGACGAUCAAGUGGUUCCCCAAAUCCACCACACCCGUCUCCUUUCUUUCUUACACAGUUUCUACUGCUAAGUAAGUCUGAAUUGUACUUCAAAGUUUUUUCAUAUAAAUCAUAUUUAUAGGGAACUUGCAACAGAGGAUUGAGCAUCA
B14: chr15:40462788:40462789:+_ENSG00000156970_ENST00000287598|hu_hu|FALSE|FALSE (ssRNA)
RNA: GGGAGUUCUACAGUCCGACGAUCAAAUCGAGGAUCACUAUAAUAUCGUUUUUCUCCUUGUAGUGCUUCUACAGCUCUUUCUAAUAACGUUGACAUAUUACUCUCCUUCCCACCUUGAGGAUAGUUCUGCUCUGUCCAGCUGAUCAACAGAGGAUUGAGCAUCA
B15: chr7:140404665:140404666:+_ENSG00000090266_ENST00000247866|hu_hu|hu_hu_hu_mus_False|18_28 (ssRNA)
RNA: GGGAGUUCUACAGUCCGACGAUCUGCUCCUACUCGUCCAGAGAGUUUACAGUGUCAGUCCUCGUCAUCAGGAGGGAUUCCCAGUUCUUCAUCUGUCCACUGUGAAGGAUCAGGAUACGGAAAGUGACCCAGCACAGCAUCCGACAACAGAGGAUUGAGCAUCA
B16: chr1:85787162:85787163:-_ENSG00000153904_ENST00000284031|hu_hu|FALSE|FALSE (ssRNA)
RNA: GGGAGUUCUACAGUCCGACGAUCGCCGGCAACCGGGGGGGACUCUGCAGCUCAGGAGUCUACUUUCUUGUUAAUUAAAACUGAGCAGCAGGUGAGCAGCCCAUCCACCUUUUCCAGUUCAGACAUGCUCACGGGGAUCAGCAUCAACAGAGGAUUGAGCAUCA
B17: chr7:135850644:135850645:-_ENSMUSG00000048170_ENSMUST00000057557|mus_hu|motif|central (ssRNA)
RNA: GGGAGUUCUACAGUCCGACGAUCAUACAAGUGUUCUGUGAAGGUACUAUUCCGUGGGCAACCACUCAAGUUAACUGUAAAUUUUCCGGGUGGAAGGACAUCUCUUCUUGUAUAUACUGUGGAGAUGAGAUGUAAUAUAAGGUACAACAGAGGAUUGAGCAUCA
B18: chr7:90019630:90019631:+_ENSMUSG00000057706_ENSMUST00000082237|mus_mus|motif|central (ssRNA)
RNA: GGGAGUUCUACAGUCCGACGAUCUAUAUCACUGAAUAGAAAAUAUGCUGGGUGAAGCAGAUCUAGAAGAUUUGUCUGAACCGGUAAAAUCUCCAUCCCAACAGAAUACUGCUCAAAACGUUAUACAUUUUAUGGUUUGUAAUCCAACAGAGGAUUGAGCAUCA
B19: chr3:75345182:75345183:-_ENSMUSG00000027835_ENSMUST00000161137|mus_hu|motif|central (ssRNA)
RNA: GGGAGUUCUACAGUCCGACGAUCAUGUGGUCUCAGCUUCAUUCUUCAUCUCUUCCAUUGUCAUCCUCAUUCAAAAGCCAACGGCAGUUGAAAAAGCAGUGCUAAAAUGCAGAGGAAUCUUCAUUCACUGCAAUAUUUCUUCUCCAACAGAGGAUUGAGCAUCA
B20: chr8:74585381:74585382:-_ENSG00000040341_ENST00000355780|hu_mus|motif|central (ssRNA)
RNA: GGGAGUUCUACAGUCCGACGAUCGGGCAUUGGGCAAUGAUACCUCUGAUUGUACAUGCCCCGGAAGUUGUAGUUAGCUCGGUAAUUUGGGAAUGGCUUUGGAUCUAGUGGCCUGUAGAUGGCAGGCUCUCCCCUUUUCAUAGCCAACAGAGGAUUGAGCAUCA
B21: chr16:71807222:71807223:-_ENSG00000166747_ENST00000299980|perfect_dup|motif|central (ssRNA)
RNA: GGGAGUUCUACAGUCCGACGAUCUCCCGCAAGAUCUCUGCACAUCUCCGAGGAGCCCAUGCAGCCGAGGGUACAAAGUGCGGGCCCCUGCACAAACUGCGUGCUAUGAUUAAGAUCAUUCUUGAUACAGUUGGUCAUGAGAAGCAACAGAGGAUUGAGCAUCA
B22: chr7:135612270:135612271:-_ENSG00000105887_ENST00000393085|hu_mus|FALSE|FALSE (ssRNA)
RNA: GGGAGUUCUACAGUCCGACGAUCGUUUUUUUCUGAGAUGUUAAAUAGUACUUCAGUGGAAAACAAAACUUAACCUUUUAUUAAUGCGUGUUGUACCAAAAGCAGACAUUUUAGCUUCAUUUAUUCAAAAAUAUUAACAUUAAGCAACAGAGGAUUGAGCAUCA

The binders below were run against T1, UNK ZnF1-3 (assay: nsRBNS (natural sequence RNA bind-n-seq); RBNS binding buffer (assumed for nsRBNS): 25 mM Tris pH 7.5, 150 mM KCl, 3 mM MgCl2, 0.01% Triton X-100, 500 ug/ml BSA, 20 U/ml SUPERase-In, 4 C; UNK is unkempt and MSI1 is Musashi-1; names of the RNAs are library labels; protein concentration not given here; high values mean tight binding).

Row | Binder | binding signal [enrichment R]
1 | B1 | 0.926
2 | B2 | 0.911
3 | B3 | 0.425
4 | B4 | 0.633
5 | B5 | 0.497
6 | B6 | 0.742
7 | B7 | 0.402
8 | B8 | 1.4
9 | B9 | 0.369
10 | B10 | 2.32
11 | B11 | 1.65
12 | B12 | 2.16
13 | B13 | 1.18
14 | B14 | 0.862
15 | B15 | 1.27
16 | B16 | 1.66
17 | B17 | 1.4
18 | B18 | 0.794
19 | B19 | 1.17
20 | B20 | 0.896
21 | B21 | 1.33
22 | B22 | 1.04
